The list shows a part of the results.
Tests used:
Test in all cases: glycan array binding signal (z-score within array); higher = stronger binding
Details in all cases: glycan notation: IUPAC condensed, linker removed
[1] = biological target: Fuc(a1-2)Gal(b1-4)GlcNAc(b1-6)GalNAc
Summary of the method: (§1)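 From the Consortium for Functional Glycomics database, 3228 arrays were curated, keeping only those whose protein sequence was available. Binding is given as a within-array Z-score averaged across arrays sharing a protein sequence and across linkers. Negative Z-scores can be read as non-binding.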

[2] = biological target: Fuc(a1-2)Gal(b1-4)GlcNAc6S
Summary of the method: as §1

[3] = biological target: Fuc(a1-2)Gal(b1-4)[Fuc(a1-3)]GlcNAc
Summary of the method: as §1

[4] = biological target: Fuc(a1-2)Gal(b1-4)[Fuc(a1-3)]GlcNAc(b1-2)Man(a1-3)[Fuc(a1-2)Gal(b1-4)[Fuc(a1-3)]GlcNAc(b1-2)Man(a1-6)]Man(b1-4)GlcNAc(b1-4)GlcNAc
Summary of the method: as §1

[5] = biological target: Fuc(a1-2)Gal(b1-4)[Fuc(a1-3)]GlcNAc(b1-2)Man(a1-3)[Fuc(a1-2)Gal(b1-4)[Fuc(a1-3)]GlcNAc(b1-2)Man(a1-6)]Man(b1-4)GlcNAc(b1-4)[Fuc(a1-6)]GlcNAc
Summary of the method: as §1

[6] = biological target: Fuc(a1-2)Gal(b1-4)[Fuc(a1-3)]GlcNAc(b1-2)[Fuc(a1-2)Gal(b1-4)[Fuc(a1-3)]GlcNAc(b1-4)]Man(a1-3)[Fuc(a1-2)Gal(b1-4)[Fuc(a1-3)]GlcNAc(b1-2)Man(a1-6)]Man(b1-4)GlcNAc(b1-4)GlcNAc
Summary of the method: as §1

[7] = biological target: Fuc(a1-2)Gal(b1-4)[Fuc(a1-3)]GlcNAc(b1-3)Gal(b1-4)[Fuc(a1-3)]GlcNAc
Summary of the method: as §1

[8] = biological target: Fuc(a1-2)Gal(b1-4)[Fuc(a1-3)]GlcNAc(b1-3)Gal(b1-4)[Fuc(a1-3)]GlcNAc(b1-3)Gal(b1-4)[Fuc(a1-3)]GlcNAc
Summary of the method: as §1

[9] = biological target: Fuc(a1-2)Gal(b1-4)[Fuc(a1-3)]GlcNAc(b1-3)GalNAc
Summary of the method: as §1

[10] = biological target: Fuc(a1-2)Gal(b1-4)[Fuc(a1-3)]GlcNAc(b1-3)[Neu5Ac(a2-6)Gal(b1-4)GlcNAc(b1-6)]Gal(b1-4)Glc
Summary of the method: as §1

[11] = biological target: Fuc(a1-2)Gal3S(b1-4)GlcNAc
Summary of the method: as §1

[12] = biological target: Fuc(a1-2)Gal6S(b1-3)GlcNAc
Summary of the method: as §1

[13] = biological target: Fuc(a1-2)Gal6S(b1-3)GlcNAc6S
Summary of the method: as §1

[14] = biological target: Fuc(a1-2)Gal6S(b1-4)Glc
Summary of the method: as §1

[15] = biological target: Fuc(a1-2)Gal6S(b1-4)Glc6S
Summary of the method: as §1

[16] = biological target: Fuc(a1-2)Gal6S(b1-4)GlcNAc
Summary of the method: as §1

[17] = biological target: Fuc(a1-2)[Gal(a1-3)]Gal
Summary of the method: as §1

[18] = biological target: Fuc(a1-2)[Gal(a1-3)]Gal(b1-3)GalNAc
Summary of the method: as §1

[19] = biological target: Fuc(a1-2)[Gal(a1-3)]Gal(b1-3)GalNAc(b1-3)Gal(a1-4)Gal(b1-4)Glc
Summary of the method: as §1

[20] = biological target: Fuc(a1-2)[Gal(a1-3)]Gal(b1-3)GlcNAc
Summary of the method: as §1

[21] = biological target: Fuc(a1-2)[Gal(a1-3)]Gal(b1-3)GlcNAc(b1-2)Man(a1-3)[Fuc(a1-2)[Gal(a1-3)]Gal(b1-3)GlcNAc(b1-2)Man(a1-6)]Man(b1-4)GlcNAc(b1-4)GlcNAc
Summary of the method: as §1

[22] = biological target: Fuc(a1-2)[Gal(a1-3)]Gal(b1-3)GlcNAc(b1-2)Man(a1-3)[Fuc(a1-2)[Gal(a1-3)]Gal(b1-3)GlcNAc(b1-2)Man(a1-6)]Man(b1-4)GlcNAc(b1-4)[Fuc(a1-6)]GlcNAc
Summary of the method: as §1

[23] = biological target: Fuc(a1-2)[Gal(a1-3)]Gal(b1-3)GlcNAc(b1-3)GalNAc
Summary of the method: as §1

[24] = biological target: Fuc(a1-2)[Gal(a1-3)]Gal(b1-3)GlcNAc(b1-6)GalNAc
Summary of the method: as §1

[25] = biological target: Fuc(a1-2)[Gal(a1-3)]Gal(b1-4)Glc
Summary of the method: as §1

[26] = biological target: Fuc(a1-2)[Gal(a1-3)]Gal(b1-4)GlcNAc
Summary of the method: as §1

[27] = biological target: Fuc(a1-2)[Gal(a1-3)]Gal(b1-4)GlcNAc(b1-2)Man
Summary of the method: as §1

[28] = biological target: Fuc(a1-2)[Gal(a1-3)]Gal(b1-4)GlcNAc(b1-2)Man(a1-3)[Fuc(a1-2)[Gal(a1-3)]Gal(b1-4)GlcNAc(b1-2)Man(a1-6)]Man(b1-4)GlcNAc(b1-4)GlcNAc
Summary of the method: as §1

[29] = biological target: Fuc(a1-2)[Gal(a1-3)]Gal(b1-4)GlcNAc(b1-2)Man(a1-3)[Fuc(a1-2)[Gal(a1-3)]Gal(b1-4)GlcNAc(b1-2)Man(a1-6)]Man(b1-4)GlcNAc(b1-4)[Fuc(a1-6)]GlcNAc
Summary of the method: as §1

[30] = biological target: Fuc(a1-2)[Gal(a1-3)]Gal(b1-4)GlcNAc(b1-3)GalNAc
Summary of the method: as §1

[31] = biological target: Fuc(a1-2)[Gal(a1-3)]Gal(b1-4)GlcNAc(b1-3)[Fuc(a1-2)[Gal(a1-3)]Gal(b1-4)GlcNAc(b1-6)]GalNAc
Summary of the method: as §1

[32] = biological target: Fuc(a1-2)[Gal(a1-3)]Gal(b1-4)GlcNAc(b1-6)GalNAc
Summary of the method: as §1

[33] = biological target: Fuc(a1-2)[Gal(a1-3)]Gal(b1-4)[Fuc(a1-3)]Glc
Summary of the method: as §1

[34] = biological target: Fuc(a1-2)[Gal(a1-3)]Gal(b1-4)[Fuc(a1-3)]GlcNAc
Summary of the method: as §1

[35] = biological target: Fuc(a1-2)[Gal(a1-3)]Gal(b1-4)[Fuc(a1-3)]GlcNAc(b1-3)GalNAc
Summary of the method: as §1

[36] = biological target: Fuc(a1-2)[Gal(a1-4)]Gal(b1-4)GlcNAc
Summary of the method: as §1

[37] = biological target: Fuc(a1-2)[GalNAc(a1-3)]Gal
Summary of the method: as §1

[38] = biological target: Fuc(a1-2)[GalNAc(a1-3)]Gal(b1-3)GalNAc(a1-3)[Fuc(a1-2)]Gal(b1-4)GlcNAc
Summary of the method: as §1

B1: MGL6A (Homo sapiens) (protein)
chain: MTRTYENFQYLENKVKVQGFKNGPLPLQSLLQRLCSGPCHLLLSLGLGLLLLVIICVVGFQNSKFQRDLVTLRTDFSNFTSNTVAEIQALTSQGSSLEETIASLKAEVEGFKQERQAVHSEMLLRVQQLVQDLKKLTCQVATLNNNGEEASTEGTCCPVNWVEHQDSCYWFSHSGMSWAEAEKYCQLKNAHLVVINSREEQNFVQKYLGSAYTWMGLSDPEGAWKWVDGTDYATGFQNWKPGQPDDWQGHGLGGGEDCAHFHPDGRWNDDVCQRPYHWVCEAGLGQTSQESH
[1]
  glycan array binding signal (z-score): 4.02
[2]
  glycan array binding signal (z-score): -0.158
[3]
  glycan array binding signal (z-score): -0.273
[4]
  glycan array binding signal (z-score): 0.033
[5]
  glycan array binding signal (z-score): -0.255
[6]
  glycan array binding signal (z-score): -0.234
[7]
  glycan array binding signal (z-score): -0.23
[8]
  glycan array binding signal (z-score): -0.254
[9]
  glycan array binding signal (z-score): -0.238
[10]
  glycan array binding signal (z-score): -0.267
[11]
  glycan array binding signal (z-score): -0.275
[12]
  glycan array binding signal (z-score): -0.274
[13]
  glycan array binding signal (z-score): -0.194
[14]
  glycan array binding signal (z-score): -0.304
[15]
  glycan array binding signal (z-score): -0.214
[16]
  glycan array binding signal (z-score): -0.241
[17]
  glycan array binding signal (z-score): -0.261
[18]
  glycan array binding signal (z-score): -0.249
[19]
  glycan array binding signal (z-score): -0.214
[20]
  glycan array binding signal (z-score): -0.272
[21]
  glycan array binding signal (z-score): -0.303
[22]
  glycan array binding signal (z-score): -0.273
[23]
  glycan array binding signal (z-score): -0.272
[24]
  glycan array binding signal (z-score): 3.42
[25]
  glycan array binding signal (z-score): -0.266
[26]
  glycan array binding signal (z-score): -0.309
[27]
  glycan array binding signal (z-score): -0.272
[28]
  glycan array binding signal (z-score): -0.361
[29]
  glycan array binding signal (z-score): -0.263
[30]
  glycan array binding signal (z-score): -0.248
[31]
  glycan array binding signal (z-score): -0.254
[32]
  glycan array binding signal (z-score): -0.27
[33]
  glycan array binding signal (z-score): -0.261
[34]
  glycan array binding signal (z-score): -0.269
[35]
  glycan array binding signal (z-score): -0.261
[36]
  glycan array binding signal (z-score): -0.201
[37]
  glycan array binding signal (z-score): 0.727
[38]
  glycan array binding signal (z-score): 0.966
